SMILES strings stand for the structures. The densities may have been worked out from excess volumes.

The series can be described thus: xn = mol fraction of the nth substance listed. The conditions noted are these: 101 kPa.

By mass density is commonly meant the mass of a sample divided by its volume. On to `CCCCCC[N+](C)(C)CCO.[Br-]` + CCCCCCCCO, for which the mass density (298.15 K, x1 = 0.0002) worked out at 824.5 kg/m3; the mass density (298.15 K, x1 = 0.0004) was 826.8 kg/m3; the mass density (298.15 K, x1 = 0.0008) was 828.7 kg/m3.
As for `CCCCCCOC[n+]1ccn(C)c1.F[B-](F)(F)F` + CCCCCCO, the mass density (308.15 K, x1 = 0.0061) is given as 812.2 kg/m3 and the mass density (318.15 K, x1 = 0.0061) was 803.1 kg/m3.
Regarding `CCCCCCOCn1cc[n+](COCCCCCC)c1.F[B-](F)(F)F` + CCCCCCO, the mass density is, setting by setting: (308.15 K, x1 = 0.002) 809.5 kg/m3; (308.15 K, x1 = 0.0055) 812.3 kg/m3; (318.15 K, x1 = 0.0034) 802 kg/m3; (318.15 K, x1 = 0.0048) 803.6 kg/m3; (318.15 K, x1 = 0.0061) 804.8 kg/m3.
For the compound `CCCCCCO` + CCCCCCOC[n+]1ccn(C)c1.F[B-](F)(F)F, the mass density (308.15 K, x1 = 1) stood at 808.1 kg/m3.
`CCCCO` + CCCCCCOC[n+]1ccn(C)c1.F[B-](F)(F)F: the mass density (318.15 K, x1 = 1) worked out at 789.7 kg/m3.
Under “308.15 K, x1 = 1”, `CO` + CCCCCCOC[n+]1ccn(C)c1.F[B-](F)(F)F registered a mass density of 771.3 kg/m3.
Take `CCCCCCCCO` + CCCCCC[N+](C)(C)CCO.[Br-]: the mass density (298.15 K, x1 = 1) came to 822.6 kg/m3.
In the case of `CCCCCCCCOS(=O)(=O)[O-].CCCC[n+]1ccn(C)c1` + CCCCO, the mass density reads like this: (298.15 K, x2 = 0.0798) 1062 kg/m3; (298.15 K, x2 = 0.151) 1055.6 kg/m3; (298.15 K, x2 = 0.3849) 1028.4 kg/m3; (298.15 K, x2 = 0.5569) 1000.2 kg/m3; (298.15 K, x2 = 0.697) 966.2 kg/m3; (298.15 K, x2 = 0.839) 913.3 kg/m3.
For `CCCCCCOC[n+]1ccn(C)c1.F[B-](F)(F)F` + CCCCO, the mass density (308.15 K, x1 = 0.0014) is given as 798.2 kg/m3; the mass density (308.15 K, x1 = 0.004) was found to be 799.9 kg/m3; the mass density (318.15 K, x1 = 0.004) turned out to be 791.6 kg/m3; the mass density (318.15 K, x1 = 0.0046) stood at 792.2 kg/m3; the mass density (318.15 K, x1 = 0.0064) is 793.8 kg/m3.
Consider `CCCCCCOCn1cc[n+](COCCCCCC)c1.F[B-](F)(F)F` + CCCCO, for which the mass density by setting is: (308.15 K, x1 = 0.0012) 799.8 kg/m3; (308.15 K, x1 = 0.0027) 803 kg/m3; (308.15 K, x1 = 0.0038) 804.5 kg/m3; (318.15 K, x1 = 0.0016) 790.5 kg/m3; (318.15 K, x1 = 0.0028) 792.1 kg/m3.
In turn, `CCCC[n+]1ccn(C)c1.COS(=O)(=O)[O-]` + CCCCO gave a mass density (298.15 K, x2 = 0.0918) of 1195.7 kg/m3; a mass density (298.15 K, x2 = 0.2232) of 1167.6 kg/m3; a mass density (298.15 K, x2 = 0.3233) of 1142.5 kg/m3; a mass density (298.15 K, x2 = 0.4882) of 1093.2 kg/m3; a mass density (298.15 K, x2 = 0.6593) of 1026.8 kg/m3; a mass density (298.15 K, x2 = 0.8547) of 920.8 kg/m3.
Regarding `COS(=O)(=O)[O-].Cn1cc[n+](C)c1` + CCCCO, the mass density is recorded as 1325.6 kg/m3 (298.15 K, x2 = 0.0228); 1322.9 kg/m3 (298.15 K, x2 = 0.0339); 1299.4 kg/m3 (298.15 K, x2 = 0.1189); 1268.1 kg/m3 (298.15 K, x2 = 0.2123); 1241.4 kg/m3 (298.15 K, x2 = 0.2828); 1189.5 kg/m3 (298.15 K, x2 = 0.4049). The mass density is on record as 1161.1 kg/m3 (298.15 K, x2 = 0.4657); 996.2 kg/m3 (298.15 K, x2 = 0.7593); 911.2 kg/m3 (298.15 K, x2 = 0.8788).
`CCCC[n+]1ccn(C)c1.COS(=O)(=O)[O-]` + CCO yielded a mass density (298.15 K, x2 = 0.2242) of 1183.8 kg/m3; a mass density (298.15 K, x2 = 0.3295) of 1164.5 kg/m3; a mass density (298.15 K, x2 = 0.5521) of 1109.9 kg/m3; a mass density (298.15 K, x2 = 0.6827) of 1060.3 kg/m3; a mass density (298.15 K, x2 = 0.82) of 980.3 kg/m3.
Regarding `COS(=O)(=O)[O-].Cn1cc[n+](C)c1` + CCO, the mass density came to 1326.1 kg/m3 (298.15 K, x2 = 0.0297); 1312.7 kg/m3 (298.15 K, x2 = 0.1089); 1271.6 kg/m3 (298.15 K, x2 = 0.2821); 1249.1 kg/m3 (298.15 K, x2 = 0.3567); 1182.5 kg/m3 (298.15 K, x2 = 0.5312); 1106.8 kg/m3 (298.15 K, x2 = 0.6742). Besides, for the setting “298.15 K, x2 = 0.8628”, the mass density is listed as 959.2 kg/m3.
In the case of `CCCCCCCCOS(=O)(=O)[O-].CCCC[n+]1ccn(C)c1` + CO, the mass density is on record as 1068 kg/m3 (298.15 K, x2 = 0); 1063.2 kg/m3 (298.15 K, x2 = 0.1583); 1056.2 kg/m3 (298.15 K, x2 = 0.341); 1037.8 kg/m3 (298.15 K, x2 = 0.5269); 1013.6 kg/m3 (298.15 K, x2 = 0.7108); 981 kg/m3 (298.15 K, x2 = 0.8183).
As to `CCCCCCOC[n+]1ccn(C)c1.F[B-](F)(F)F` + CO, the mass density was 772.9 kg/m3 (308.15 K, x1 = 0.0032); 773.4 kg/m3 (308.15 K, x1 = 0.0037); 765.3 kg/m3 (318.15 K, x1 = 0.0026); 766.2 kg/m3 (318.15 K, x1 = 0.0036); 766.8 kg/m3 (318.15 K, x1 = 0.0044).
`CCCCCCOCn1cc[n+](COCCCCCC)c1.F[B-](F)(F)F` + CO: the mass density runs as follows: (308.15 K, x1 = 0.0009) 772 kg/m3; (308.15 K, x1 = 0.0019) 774.1 kg/m3; (318.15 K, x1 = 0.0007) 766.9 kg/m3; (318.15 K, x1 = 0.0012) 767 kg/m3; (318.15 K, x1 = 0.0019) 767.8 kg/m3.
Take `CCCC[n+]1ccn(C)c1.COS(=O)(=O)[O-]` + CO: the mass density runs as follows: (298.15 K, x2 = 0.1826) 1192.8 kg/m3; (298.15 K, x2 = 0.3515) 1169.5 kg/m3; (298.15 K, x2 = 0.4798) 1149.4 kg/m3; (298.15 K, x2 = 0.6308) 1114.1 kg/m3; (298.15 K, x2 = 0.7487) 1064.7 kg/m3; (298.15 K, x2 = 0.9307) 911.6 kg/m3.
Turning to `COS(=O)(=O)[O-].Cn1cc[n+](C)c1` + CO, the mass density by setting is: (298.15 K, x2 = 0) 1329 kg/m3; (298.15 K, x2 = 0.259) 1288.1 kg/m3; (298.15 K, x2 = 0.3854) 1260.5 kg/m3; (298.15 K, x2 = 0.5214) 1224.1 kg/m3; (298.15 K, x2 = 0.7353) 1125.1 kg/m3.
Take `CCCCO` + COS(=O)(=O)[O-].Cn1cc[n+](C)c1: under “298.15 K, x1 = 1”, the mass density turned out to be 805.6 kg/m3.
Same read-out and setting: next, `CCO` + COS(=O)(=O)[O-].Cn1cc[n+](C)c1: 784.8 kg/m3; `CO` + COS(=O)(=O)[O-].Cn1cc[n+](C)c1: 785.3 kg/m3.
